For orientation: MIC means the lowest concentration found to suppress growth.

From the supplement of paper PMC6657886 come the findings set out here.

MIC of clinical N. gonorrhoeae isolates (2015-2017) by agar dilution on GC agar with 1% IsoVitaleX (ranges not stated); higher = less susceptible. No active / inactive call per row; the paper counts benzylpenicillin above 1 and ceftriaxone above 0.125 mg/L as resistant (EUCAST). The method is stated for benzylpenicillin and ceftriaxone and assumed for the other drugs. '<=' is inferred from pile-ups at the end values. Isolates are numbered anew.

Common to all, as to experiment: Agar dilution on enriched GC agar; resistance determinants by microarray.
Background: Agar dilution tests growth on a series of plates holding different concentrations.

Compound in experiment [1]: CC1(C)S[C@@H]2[C@H](NC(=O)Cc3ccccc3)C(=O)N2[C@H]1C(=O)O [benzylpenicillin]
Compound in experiment [2]: CC[C@H]1OC(=O)[C@H](C)[C@@H](O[C@H]2C[C@@](C)(OC)[C@@H](O)[C@H](C)O2)[C@H](C)[C@@H](O[C@@H]2O[C@H](C)C[C@H](N(C)C)[C@H]2O)[C@](C)(O)C[C@@H](C)CN(C)[C@H](C)[C@@H](O)[C@]1(C)O [azithromycin]
Compound in experiment [3]: CO/N=C(\C(=O)N[C@@H]1C(=O)N2C(C(=O)O)=C(CSc3nc(=O)c(O)nn3C)CS[C@H]12)c1csc(N)n1 [ceftriaxone]
Compound in experiment [4]: CN[C@@H]1[C@H](O)[C@H](NC)[C@H]2O[C@@]3(O)C(=O)C[C@@H](C)O[C@H]3O[C@@H]2[C@H]1O [spectinomycin]
Compound in experiment [5]: CN(C)[C@@H]1C(O)=C(C(N)=O)C(=O)[C@@]2(O)C(O)=C3C(=O)c4c(O)cccc4[C@@](C)(O)[C@H]3C[C@@H]12 [tetracycline]

With “Neisseria gonorrhoeae isolate 493 (blaTEM plasmid: no, gyrA: wild type, mtrR promoter: wild type, parC: wild type, penA: ins345Asp, ponA: wild type, porB: wild type, rpsJ: wild type, tetM plasmid: no)”, the MIC was 0.12 µg/mL in experiment [1]; 0.12 µg/mL in experiment [2]; 0.008 µg/mL in experiment [3]; 4 µg/mL in experiment [4]; 0.12 µg/mL in experiment [5].

With “Neisseria gonorrhoeae isolate 200 (blaTEM plasmid: no, gyrA: wild type, mtrR promoter: wild type, parC: wild type, penA: ins345Asp, ponA: Pro421, porB: wild type, rpsJ: Met57, tetM plasmid: no)”, the MIC in experiment [1] was 0.06 µg/mL; in experiment [2], 0.12 µg/mL; in experiment [3], no more than 0.002 µg/mL; in experiment [4] it was 8 µg/mL; in experiment [5], 0.5 µg/mL.

For “Neisseria gonorrhoeae isolate 130 (blaTEM plasmid: no, gyrA: wild type, mtrR promoter: wild type, parC: wild type, penA: ins345Asp, ponA: wild type, porB: wild type, rpsJ: wild type, tetM plasmid: no)”, the MIC in experiment [1] came out at 0.06 µg/mL; in experiment [2] it was 0.06 µg/mL; in experiment [3], 0.004 µg/mL; in experiment [4], 32 µg/mL; in experiment [5], 0.25 µg/mL.

As to “Neisseria gonorrhoeae isolate 121 (blaTEM plasmid: no, gyrA: Phe91, Gly95, mtrR promoter: wild type, parC: Arg87, Glu91, penA: ins345Asp, ponA: Pro421, porB: wild type, rpsJ: Met57, tetM plasmid: no)”, the MIC was 0.25 µg/mL in experiment [1]; 0.015 µg/mL in experiment [2]; 0.004 µg/mL in experiment [3]; 32 µg/mL in experiment [4]; 0.5 µg/mL in experiment [5].

In the case of “Neisseria gonorrhoeae isolate 91 (blaTEM plasmid: no, gyrA: wild type, mtrR promoter: wild type, parC: wild type, penA: wild type, ponA: wild type, porB: wild type, rpsJ: wild type, tetM plasmid: no)”, the MIC is no more than 0.015 µg/mL in experiment [1]; 0.06 µg/mL in experiment [2]; no more than 0.002 µg/mL in experiment [3]; 16 µg/mL in experiment [4]; 0.12 µg/mL in experiment [5].

As to “Neisseria gonorrhoeae isolate 356 (blaTEM plasmid: no, gyrA: wild type, mtrR promoter: wild type, parC: wild type, penA: ins345Asp, ponA: wild type, porB: wild type, rpsJ: wild type, tetM plasmid: no)”, the MIC in experiment [1] was 0.5 µg/mL; in experiment [2], 0.008 µg/mL; in experiment [3] it was no more than 0.002 µg/mL; in experiment [4], 32 µg/mL; in experiment [5], 0.12 µg/mL.

Consider “Neisseria gonorrhoeae isolate 15 (blaTEM plasmid: no, gyrA: Thr91, Gly95, mtrR promoter: wild type, parC: wild type, penA: ins345Asp, ponA: wild type, porB: wild type, rpsJ: Met57, tetM plasmid: no)”, for which the MIC is 0.12 µg/mL in experiment [1]; 0.06 µg/mL in experiment [2]; no more than 0.002 µg/mL in experiment [3]; 16 µg/mL in experiment [4]; 0.5 µg/mL in experiment [5].

As to “Neisseria gonorrhoeae isolate 169 (blaTEM plasmid: no, gyrA: wild type, mtrR promoter: wild type, parC: wild type, penA: ins345Asp, ponA: wild type, porB: wild type, rpsJ: wild type, tetM plasmid: no)”, the MIC was found to be 0.06 µg/mL in experiment [1]; 0.004 µg/mL in experiment [2]; 0.004 µg/mL in experiment [3]; 32 µg/mL in experiment [4]; 0.06 µg/mL in experiment [5].

Regarding “Neisseria gonorrhoeae isolate 382 (blaTEM plasmid: no, gyrA: Phe91, Asp95, mtrR promoter: wild type, parC: wild type, penA: ins345Asp, ponA: wild type, porB: wild type, rpsJ: wild type, tetM plasmid: no)”, the MIC was found to be 0.12 µg/mL in experiment [1]; 0.12 µg/mL in experiment [2]; 0.004 µg/mL in experiment [3]; 32 µg/mL in experiment [4]; 0.06 µg/mL in experiment [5].

With “Neisseria gonorrhoeae isolate 8 (blaTEM plasmid: yes, gyrA: Phe91, Asn 95, mtrR promoter: wild type, parC: Asn87, Lys91, penA: ins345Asp, ponA: Pro421, porB: wild type, rpsJ: Met57, tetM plasmid: yes)”, the MIC in experiment [1] was no less than 32 µg/mL; in experiment [2], 0.06 µg/mL; in experiment [3], 0.004 µg/mL; in experiment [4], 16 µg/mL; in experiment [5], 64 µg/mL.

For “Neisseria gonorrhoeae isolate 284 (blaTEM plasmid: no, gyrA: Thr91, Gly95, mtrR promoter: wild type, parC: wild type, penA: ins345Asp, ponA: Pro421, porB: wild type, rpsJ: Met57, tetM plasmid: no)”, the MIC is 0.06 µg/mL in experiment [1]; 0.015 µg/mL in experiment [2]; no more than 0.002 µg/mL in experiment [3]; 16 µg/mL in experiment [4]; 0.5 µg/mL in experiment [5].

Regarding “Neisseria gonorrhoeae isolate 157 (blaTEM plasmid: no, gyrA: Phe91, Gly95, mtrR promoter: -35delA, parC: Arg87, Glu91, penA: ins345Asp, ponA: Pro421, porB: Asn120, Asp121, rpsJ: Met57, tetM plasmid: no)”, the MIC in experiment [1] stood at 0.25 µg/mL; in experiment [2] it was 0.03 µg/mL; in experiment [3], 0.004 µg/mL; in experiment [4], 32 µg/mL; in experiment [5], 0.25 µg/mL.

“Neisseria gonorrhoeae isolate 385 (blaTEM plasmid: yes, gyrA: Phe91, Asp95, mtrR promoter: wild type, parC: Arg87, Lys91, penA: ins345Asp, ponA: Pro421, porB: wild type, rpsJ: Met57, tetM plasmid: yes)”: the MIC was 16 µg/mL in experiment [1]; 0.12 µg/mL in experiment [2]; no more than 0.002 µg/mL in experiment [3]; 32 µg/mL in experiment [4]; 32 µg/mL in experiment [5].

For the test system “Neisseria gonorrhoeae isolate 470 (blaTEM plasmid: no, gyrA: wild type, mtrR promoter: wild type, parC: wild type, penA: ins345Asp, ponA: wild type, porB: wild type, rpsJ: wild type, tetM plasmid: no)”, the MIC in experiment [1] is no more than 0.015 µg/mL; in experiment [2], 0.008 µg/mL; in experiment [3], no more than 0.002 µg/mL; in experiment [4], 32 µg/mL; in experiment [5], 0.5 µg/mL.

For the test system “Neisseria gonorrhoeae isolate 268 (blaTEM plasmid: no, gyrA: wild type, mtrR promoter: wild type, parC: wild type, penA: wild type, ponA: wild type, porB: wild type, rpsJ: wild type, tetM plasmid: no)”, the MIC in experiment [1] is no more than 0.015 µg/mL; in experiment [2], 0.12 µg/mL; in experiment [3], no more than 0.002 µg/mL; in experiment [4], 16 µg/mL; in experiment [5], 1 µg/mL.

As to “Neisseria gonorrhoeae isolate 250 (blaTEM plasmid: no, gyrA: wild type, mtrR promoter: wild type, parC: wild type, penA: wild type, ponA: wild type, porB: wild type, rpsJ: wild type, tetM plasmid: no)”, the MIC was no more than 0.015 µg/mL in experiment [1]; 0.06 µg/mL in experiment [2]; no more than 0.002 µg/mL in experiment [3]; 4 µg/mL in experiment [4]; 0.03 µg/mL in experiment [5].

Take “Neisseria gonorrhoeae isolate 70 (blaTEM plasmid: no, gyrA: wild type, mtrR promoter: wild type, parC: wild type, penA: ins345Asp, ponA: wild type, porB: wild type, rpsJ: wild type, tetM plasmid: no)”: the MIC is 0.25 µg/mL in experiment [1]; 0.008 µg/mL in experiment [2]; no more than 0.002 µg/mL in experiment [3]; 32 µg/mL in experiment [4]; 0.5 µg/mL in experiment [5].

In the case of “Neisseria gonorrhoeae isolate 377 (blaTEM plasmid: no, gyrA: wild type, mtrR promoter: wild type, parC: wild type, penA: wild type, ponA: wild type, porB: wild type, rpsJ: wild type, tetM plasmid: no)”, the MIC was no more than 0.015 µg/mL in experiment [1]; 0.015 µg/mL in experiment [2]; no more than 0.002 µg/mL in experiment [3]; 32 µg/mL in experiment [4]; 0.06 µg/mL in experiment [5].

On to “Neisseria gonorrhoeae isolate 454 (blaTEM plasmid: no, gyrA: wild type, mtrR promoter: wild type, parC: Arg87, Glu91, penA: ins345Asp, ponA: Pro421, porB: wild type, rpsJ: Met57, tetM plasmid: no)”, for which the MIC in experiment [1] is 0.12 µg/mL; in experiment [2], 0.12 µg/mL; in experiment [3], 0.008 µg/mL; in experiment [4], 32 µg/mL; in experiment [5], 1 µg/mL.

As to “Neisseria gonorrhoeae isolate 400 (blaTEM plasmid: no, gyrA: Phe91, Asn95, mtrR promoter: wild type, parC: Arg87, Glu91, penA: ins345Asp, ponA: Pro421, porB: Asp120, Gly121, rpsJ: Met57, tetM plasmid: no)”, the MIC worked out at 0.5 µg/mL in experiment [1]; 0.06 µg/mL in experiment [2]; 0.008 µg/mL in experiment [3]; 32 µg/mL in experiment [4]; 1 µg/mL in experiment [5].

As for “Neisseria gonorrhoeae isolate 19 (blaTEM plasmid: no, gyrA: wild type, mtrR promoter: -35delA, parC: wild type, penA: ins345Asp, ponA: wild type, porB: wild type, rpsJ: wild type, tetM plasmid: no)”, the MIC in experiment [1] was 0.06 µg/mL; in experiment [2], 0.12 µg/mL; in experiment [3], no more than 0.002 µg/mL; in experiment [4], 16 µg/mL; in experiment [5] it was 0.25 µg/mL.

“Neisseria gonorrhoeae isolate 129 (blaTEM plasmid: no, gyrA: wild type, mtrR promoter: wild type, parC: wild type, penA: ins345Asp, ponA: wild type, porB: wild type, rpsJ: Met57, tetM plasmid: no)”: the MIC in experiment [1] is 0.03 µg/mL; in experiment [2], 0.06 µg/mL; in experiment [3] it was no more than 0.002 µg/mL; in experiment [4], 8 µg/mL; in experiment [5] it was 1 µg/mL.

As to “Neisseria gonorrhoeae isolate 471 (blaTEM plasmid: no, gyrA: Phe91, Asn 95, mtrR promoter: wild type, parC: Arg 87, Glu91, penA: wild type, ponA: Pro421, porB: wild type, rpsJ: wild type, tetM plasmid: no)”, the MIC is 0.25 µg/mL in experiment [1]; 0.06 µg/mL in experiment [2]; no more than 0.002 µg/mL in experiment [3]; 32 µg/mL in experiment [4]; 0.5 µg/mL in experiment [5].

In the case of “Neisseria gonorrhoeae isolate 1 (blaTEM plasmid: no, gyrA: wild type, mtrR promoter: wild type, parC: wild type, penA: ins345Asp, ponA: wild type, porB: Asp120, Ala121, rpsJ: wild type, tetM plasmid: no)”, the MIC in experiment [1] came out at 0.5 µg/mL; in experiment [2], 0.5 µg/mL; in experiment [3], 0.008 µg/mL; in experiment [4], 16 µg/mL; in experiment [5] it was 1 µg/mL.

“Neisseria gonorrhoeae isolate 349 (blaTEM plasmid: no, gyrA: Thr91, Gly95, mtrR promoter: wild type, parC: wild type, penA: ins345Asp, ponA: wild type, porB: Gly120, Ser121, rpsJ: Met57, tetM plasmid: no)”: the MIC in experiment [1] is 0.12 µg/mL; in experiment [2], 0.03 µg/mL; in experiment [3], no more than 0.002 µg/mL; in experiment [4], 16 µg/mL; in experiment [5] it was 0.5 µg/mL.
